# The supplement of paper PMC6746778
# Counter-ions that a name gives are not always drawn. Some of the results follow. Single values are uncertain, as repeats are few or missing.
# Tests used:
# Assay in all cases: proliferation Z-score within cell line (SRB, relative to all inhibitors screened on that line); triple-negative breast cancer lines and a kinase inhibitor library; SRB is the sulforhodamine B protein stain; higher = less growth inhibition (more resistant)
# Conditions in all cases: concentration: 1 µM; 4 days
# Bt20 = tested on: Bt20
# Bt549 = tested on: Bt549
# HCC1143 = tested on: HCC1143
# HCC1806 = tested on: HCC1806
# HCC1937 = tested on: HCC1937
# HCC38 = tested on: HCC38
# HCC70 = tested on: HCC70
# Hs578T = tested on: Hs578T
# MDA-MB-231 = tested on: MDA-MB-231
# MDA-MB-435s = tested on: MDA-MB-435s
# MDA-MB-436 = tested on: MDA-MB-436
# MDA-MB-453 = tested on: MDA-MB-453
# MDA-MB-468 = tested on: MDA-MB-468
# SKBR7 = tested on: SKBR7
# SUM1315MO2 = tested on: SUM1315MO2
# SUM149PT = tested on: SUM149PT
# SUM159PT = tested on: SUM159PT
# SUM185PE = tested on: SUM185PE
# SUM229PE = tested on: SUM229PE
# SUM52PE = tested on: SUM52PE
# 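Also: Single-dose primary screen of a 378-member kinase inhibitor library in 96-well plates, with growth read as absorbance of protein-bound SRB dye after TCA fixation.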
SMILES,proliferation Z-score within cell line (Bt20),proliferation Z-score within cell line (Bt549),proliferation Z-score within cell line (HCC1143),proliferation Z-score within cell line (HCC1806),proliferation Z-score within cell line (HCC1937),proliferation Z-score within cell line (HCC38),proliferation Z-score within cell line (HCC70),proliferation Z-score within cell line (Hs578T),proliferation Z-score within cell line (MDA-MB-231),proliferation Z-score within cell line (MDA-MB-435s),proliferation Z-score within cell line (MDA-MB-436),proliferation Z-score within cell line (MDA-MB-453),proliferation Z-score within cell line (MDA-MB-468),proliferation Z-score within cell line (SKBR7),proliferation Z-score within cell line (SUM1315MO2),proliferation Z-score within cell line (SUM149PT),proliferation Z-score within cell line (SUM159PT),proliferation Z-score within cell line (SUM185PE),proliferation Z-score within cell line (SUM229PE),proliferation Z-score within cell line (SUM52PE)
CS(=O)(=O)N1CCc2c(-c3cnc(N)nc3)nc(N3CCOCC3)nc21,-1.8,0.463,0.599,0.206,0.592,0.63,0.7,0.359,-0.68,-0.74,0.572,-0.807,-0.301,0.682,-0.411,0.00987,0.449,-1.51,-1.1,-0.974
CCOC(=O)c1cnc2ccc(-c3cncc(NS(=O)(=O)c4ccccc4)c3)cn12,-3.02,-2.43,-2.83,-1.94,-2.92,-2.83,-2.22,-2.88,-2.17,-2.5,-1.67,-1.92,-2.54,-2.16,-2.32,-2.45,-3.54,-1.72,-2.16,-1.67
O=C(NC(NC(=S)Nc1ccc(F)c([N+](=O)[O-])c1)C(Cl)(Cl)Cl)C(c1ccccc1)c1ccccc1 (stereo not given),0.681,0.536,0.363,0.538,0.178,0.418,0.246,0.317,0.597,0.525,-0.0715,0.455,0.667,-0.434,0.718,0.669,0.159,0.933,0.735,0.832
O=C1NC(=O)C(c2ccccc2[N+](=O)[O-])=C1Nc1ccc(O)c(Cl)c1,0.6,0.658,0.887,0.74,0.711,0.546,0.695,0.623,1.18,0.968,0.717,0.966,1.07,0.646,0.859,0.842,0.618,0.673,0.623,0.826
NC(=O)c1cccc(-c2cc(Nc3ccc(OC(F)(F)F)cc3)ncn2)c1,-0.775,0.85,0.302,0.64,0.437,0.0162,0.0943,0.722,0.302,0.0909,0.351,0.68,-0.0185,0.323,-0.0669,-0.0354,0.201,-0.43,-0.779,-0.758
COC(=O)c1ccc2c(C(=Nc3ccc(N(C)C(=O)CN4CCN(C)CC4)cc3)c3ccccc3)c(O)[nH]c2c1 [Nintedanib (BIBF 1120)],0.7,0.517,0.454,0.554,0.456,0.508,0.542,0.399,0.729,0.748,0.422,0.852,0.638,0.922,-0.255,0.717,0.415,-0.792,0.482,-0.00993
CC(C)(O)CC(=O)NCCn1ccc2ncnc(Nc3ccc(Oc4cccc(C(F)(F)F)c4)c(Cl)c3)c21,0.279,0.785,0.415,-0.508,0.263,0.561,0.76,0.681,0.786,0.976,0.643,-0.313,0.0357,0.844,0.745,0.55,0.602,0.502,0.884,0.692
FC(F)c1nc2ccccc2n1-c1nc(N2CCOCC2)nc(N2CCOCC2)n1,-0.954,0.709,0.744,0.663,0.792,0.57,0.903,0.683,-0.628,-0.875,1.11,0.911,-1.07,0.959,-1.72,-0.027,0.621,-1.68,-0.66,-1.31
COc1cc2nccc(Oc3ccc(NC(=O)Nc4ccc(F)cc4F)c(F)c3)c2cc1OC,0.337,0.629,0.703,1.64,0.961,0.532,0.84,0.665,0.77,0.845,1.43,0.829,0.659,0.888,0.498,1.01,0.677,0.191,0.579,-0.389
COc1c(C)c(C(=O)c2ccc(N)c(C(=O)O)c2)n2ccccc12,0.967,0.745,0.918,0.735,0.855,0.544,0.642,0.611,0.765,0.693,0.825,0.989,1.13,0.648,1.15,0.768,0.558,0.946,0.871,1.24
CN1CCN(c2nc(C3=C(c4c[nH]c5ccccc45)C(=O)NC3=O)c3ccccc3n2)CC1 [Sotrastaurin],0.562,0.856,1.02,0.676,0.674,0.263,0.65,0.757,0.938,0.879,0.854,0.988,1.06,0.864,0.957,0.743,0.566,0.766,0.517,0.677
O=C(NOCC(O)CO)c1cc(Br)c(F)c(F)c1Nc1ccc(I)cc1F (stereo not given),0.098,0.413,-0.651,-1.34,0.288,-0.126,0.314,-0.448,-1.78,-1.61,-0.0113,0.145,0.449,1.24,0.645,-1.7,0.162,-0.192,-1.76,-1.12
COc1ncc(-c2ccc3nccc(-c4ccnnc4)c3c2)cc1NS(=O)(=O)c1ccc(F)cc1F,-2.01,-2,-2.06,-1.82,-2.34,-2.41,-1.87,-2.03,-1.5,-1.54,-1.82,-1.52,-1.57,-1.77,-1.06,-1.89,-2.13,-1.54,-1.91,-1.26
Cc1ccc(F)c(NC(=O)Nc2ccc(-c3cccc4[nH]nc(N)c34)cc2)c1 [Linifanib (ABT-869)],0.255,0.389,0.319,0.197,0.599,0.463,0.304,0.425,0.718,0.377,0.521,0.348,0.596,-0.148,0.57,-0.106,0.189,0.22,0.245,0.656
N=C(N)NC(=N)NCCc1ccccc1 [Phenformin HCl],0.674,0.569,0.845,0.74,0.726,0.667,0.609,0.554,0.897,1.07,0.52,0.99,1.06,0.59,1.15,0.982,0.695,0.931,0.888,1.16
COc1cc2ncnc(Oc3cccc(NC(=O)Nc4cc(C(C)(C)C(F)(F)F)on4)c3)c2cc1OC,0.561,0.382,0.72,-0.323,0.745,0.311,0.56,-0.0107,-0.752,-1.15,0.512,-0.681,0.793,0.594,0.562,0.742,0.335,0.424,0.726,-0.316
CC(C)n1nc(-c2ccc3oc(N)nc3c2)c2c(N)ncnc21,-1.66,-2.09,-2,-1.57,-1.96,-2.25,-1.92,-2.11,-1.48,-1.58,-1.79,-1.54,-1.42,-1.82,-1.49,-1.47,-1.96,-1.45,-1.78,-1.2
Cn1cnc2c(F)c(Nc3ccc(Br)cc3F)c(C(=O)NOCCO)cc21,-0.263,0.498,-1.42,-1.35,0.0443,-0.0925,-0.447,-0.502,-2.16,-2.24,0.23,0.395,0.343,1.32,0.197,-1.64,0.399,-0.529,-2.52,-1.5
CC(C)(C)NS(=O)(=O)c1cncc(-c2cc(F)c3nc(N)nn3c2)c1,0.77,0.634,0.564,0.759,0.789,0.521,0.541,0.5,0.661,0.913,1.04,0.725,0.854,0.874,1.27,0.876,0.487,1.99,1.05,1.27
CC[C@@H]1C(=O)N(C)c2cnc(Nc3ccc(C(=O)N[C@H]4CC[C@H](N5CCN(CC6CC6)CC5)CC4)cc3OC)nc2N1C(C)C [Volasertib (BI 6727)],-2.35,-2.17,-3.45,-2.09,-1.47,-4.28,-2.29,-1.68,-2.52,-1.71,-1.55,-1.9,-2.39,-2.59,-1.93,-2.47,-3.66,-1.05,-1.01,-1.82
Cc1csc(-c2nnc(Nc3ccc(Oc4ncccc4-c4ccnc(N)n4)cc3)c3ccccc23)c1,-0.167,-0.416,0.275,0.486,0.463,-0.242,-0.259,-0.252,-0.701,-0.0419,-0.246,-0.35,-1.43,-0.437,0.306,0.374,-0.168,0.513,0.0576,-0.478
COc1cc2c(N3CCN(C(=O)Nc4ccc(OC(C)C)cc4)CC3)ncnc2cc1OCCCN1CCCCC1 [Tandutinib (MLN518)],1.48,0.379,0.652,0.263,0.685,0.462,0.6,0.471,0.935,1.15,0.7,0.785,1.3,0.767,0.871,1.05,0.518,1.11,0.585,1.58
O=C(/C=C/c1ccc(O)c(O)c1)c1ccc(O)cc1O [Butein],0.696,0.51,0.552,0.778,0.588,0.422,0.505,0.519,0.945,0.717,0.196,0.663,0.823,0.751,0.684,0.81,0.411,0.856,0.765,1.09
COc1ccc(-c2ccc3ncc4c(c3c2)n(-c2ccc(N3CCNCC3)c(C(F)(F)F)c2)c(=O)n4C)cn1,-1.86,-1.99,-2.1,-2.05,-1.98,-2.33,-1.87,-2.1,-1.66,-1.81,-1.71,-1.66,-1.55,-1.9,-1.19,-1.58,-2.15,-1.61,-1.91,-1.25
O=C1NC(=O)/C(=C/c2ccc3c(c2)OC(F)(F)O3)S1,0.763,0.827,0.811,0.929,0.737,0.597,0.763,0.723,0.881,0.917,0.747,1.06,1.15,0.961,1.27,1.05,0.641,1.31,0.78,1.26
